PubChem BioAssay AID886 (National Center for Advancing Translational Sciences (NCATS), 2007)
Out of some 73,000 compounds screened, about 2,500 (3.4%) were called active. Inconclusive results, whose numbers are uncertain, are shown with a selection of clear calls. Calls follow the shape of the dose curve; as a rule, active = well fitted inhibition curve with a large enough effect; inconclusive = small, poorly fitted or top-dose-only effect; inactive = no such curve, though single readings can be large or run the other way. A potency beside an inconclusive call is a rough fit, not a confirmed value.
% is scaled to controls: 0 for no effect and ±100 for the full control effect; potency is read from the fitted curve at half-maximal effect; tags tell the direction and shape of the fitted curve.
Also: nearly all actives have a fitted effect of over 60% in size.

These compounds were tested against 3-hydroxyacyl-CoA dehydrogenase type-2 (Homo sapiens) (UniProt Q99714) (assay: qHTS Assay for Inhibitors of HADH2 (Hydroxyacyl-Coenzyme A Dehydrogenase, Type II)). Settings: recombinant HADH2, NADH fluorescence, beta-hydroxybutyryl-CoA; activity change, negative = inhibition: at 57.1 µM (top of the series).
Sequence of UniProt Q99714 (Q99714 whole entry, looked up): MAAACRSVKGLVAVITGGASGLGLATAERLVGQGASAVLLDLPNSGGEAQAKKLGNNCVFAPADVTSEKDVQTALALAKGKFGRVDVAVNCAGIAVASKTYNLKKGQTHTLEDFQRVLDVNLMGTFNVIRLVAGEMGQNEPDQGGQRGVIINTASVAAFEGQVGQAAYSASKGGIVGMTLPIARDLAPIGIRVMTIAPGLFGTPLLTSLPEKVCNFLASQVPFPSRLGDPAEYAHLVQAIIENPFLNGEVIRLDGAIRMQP
Sequence of UniProt Q99714 (Q99714 whole entry, looked up): as above
Summary of the method: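 Buffer 100 mM Tris-HCl pH 9.0/0.01% Tween-20; HADH2 20 nM; NAD+ 1 mM; beta-hydroxybutyryl-CoA 90 uM (all final). 15 min cpd preincubation, RT.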
`COC(=O)C1CCN(c2cc(=O)n(-c3ccccc3Cl)c(=O)[nH]2)CC1` was tested, and the Potency was inconclusive: 39.8 µM [inhibitor, single point].
In the case of `CCCCC(CC)COC(=O)c1ccc(N(C)C)cc1` (stereo not drawn), the Potency is reported as inconclusive: 39.8 µM [inhibitor, single point].
For `CCCn1c(NC(=O)c2cccc(S(=O)(=O)N3CCCC3)c2)nc2ccccc21`, the Potency was inconclusive: 25.1 µM [inhibitor, single point].
In the case of `O=C(CCCn1c(=O)c2sccc2n(Cc2cc(=O)n3ccccc3n2)c1=O)NCc1ccco1`, the Potency is reported as inconclusive: 25.1 µM [inhibitor, single point].
In the case of `CC(C)Oc1ccc2c3c(c(=O)oc2c1)CCC3`, the Potency is reported as inconclusive: 31.6 µM [inhibitor, single point].
For `NC(=O)C1(N2CCCCC2)CCN(c2ccc3nnc(-c4ccccc4)n3n2)CC1`, the Potency was inconclusive: 25.1 µM [inhibitor, single point].
`COc1ccc(NC(=O)N2CCC3(CC2)CCN(C(=O)c2cccc(F)c2)CC3)cc1` was tested, and the “activity change, negative = inhibition” value was inactive: 8.1%.
In the case of `Cc1ccc2c(c1)c1c(n2CC(O)CNC(CO)(CO)CO)CCCC1` (stereo not drawn), the Potency is reported as inconclusive: 39.8 µM [inhibitor, single point].
With `O=C(CC1(O)C(=O)N(Cc2ccccc2Cl)c2ccccc21)c1ccco1` (stereo not drawn) the “activity change, negative = inhibition” value was inactive: -19.4%.
`COC(=O)C1=C(C)NC2=C(C(=O)CC(c3cccs3)C2)C1c1ccsc1` (stereo not drawn) was tested, and the Potency was inconclusive: 39.8 µM [inhibitor, single point].
In the case of `c1ccc2c(c1)CCN(c1nc3cc4c(cc3s1)OCCO4)C2`, the Potency is reported as inconclusive: 31.6 µM [inhibitor, single point].
With `COC(=O)c1cc(OC)c(OC)cc1NC(=O)c1oc2ccccc2c1C` the Potency was inconclusive: 5.01 µM [inhibitor, full curve, poor fit].
With `C/C(=C\c1ccco1)C1Nc2cccc3cccc(c23)N1` the Potency was inconclusive: 7.94 µM [inhibitor, full curve].
In the case of `C(=N\n1cnnc1)/c1ccc(N2CCOCC2)cc1`, the Potency is reported as inconclusive: 31.6 µM [inhibitor, single point].
`COc1ccc(-c2nn3c(-c4ccccc4)nnc3s2)cc1` was tested, and the “activity change, negative = inhibition” value was inactive: 17.7%.
With `Cc1cc(SCC(=O)NC(=O)NCc2ccco2)nc2c(C)cccc12` the Potency was inconclusive: 15.8 µM [inhibitor, partial curve].
For `CCCCOc1ccc(C(=O)N2CCC(C)CC2)cc1`, the “activity change, negative = inhibition” value was inactive: -1.26%.
In the case of `CCCC[C@@H]1C[C@H]1C(NC(=O)c1cccs1)c1ccc(-c2ccccc2)cc1` (stereo partly drawn), the “activity change, negative = inhibition” value is reported as inactive: 9.88%.
`CCc1ccc(C2CC(=O)N3CN(c4ccccc4)CSC3=C2C#N)cc1` (stereo not drawn) was tested, and the Potency was active: 0.631 µM.
In the case of `COCc1nnc(NC(=O)c2sc3ccccc3c2Cl)s1`, the Potency is reported as inconclusive: 25.1 µM [inhibitor, single point].
For `O=C(NCc1ccco1)c1cccc2c1C(=O)N(C1CCCCC1)C2`, the “activity change, negative = inhibition” value was inactive: 4.11%.
For `COc1ncc2nc(-c3ccc(F)cc3)c(=O)n(C[C@H]3CCCO3)c2n1`, the Potency was active: 25.1 µM.
For `O=C1CCCC2=C1C(c1cccs1)n1nc(SCc3ccccc3F)nc1N2` (stereo not drawn), the Potency was active: 15.8 µM.
With `COc1ccc(C(=O)Nc2ccc3c(c2)nc2n3CCSC2)cc1` the Potency was inconclusive: 39.8 µM [inhibitor, single point].
In the case of `CCCn1c(NCc2cccc(OC)c2OC)nc2ccccc21`, the “activity change, negative = inhibition” value is reported as inactive: 31.6%.
In the case of `O=C(CSc1nc(-c2ccccc2)cc(=O)[nH]1)N1CCc2ccccc21`, the Potency is reported as inconclusive: 3.98 µM [inhibitor, full curve, poor fit].
For `O=C(O)CCc1ccc(-c2cccs2)n1CCC(=O)O`, the Potency was inconclusive: 25.1 µM [inhibitor, partial curve].
In the case of `CCCCCCNc1c(C(=O)OCC)c(=O)[nH]c2ccccc12`, the Potency is reported as inconclusive: 25.1 µM [inhibitor, single point].
`Cn1cc(-c2nc3cnc(N4CCOCC4)nc3n(C3CC3)c2=O)c2ccccc21` was tested, and the Potency was inconclusive: 3.16 µM [inhibitor, single point].
With `c1ccc(CNc2nc(-c3ccc4c(c3)OCO4)nc3ccccc23)cc1` the Potency was inconclusive: 39.8 µM [inhibitor, single point].
For `N#Cc1c(N)nc(-c2ccccc2)nc1-c1ccccc1`, the Potency was inconclusive: 31.6 µM [inhibitor, single point].
With `O=C(CSc1nnc(-c2cccs2)n1-c1ccccc1)N1CCc2ccccc21` the “activity change, negative = inhibition” value was inactive: 1.67%.
With `CC(=O)c1c(C)[nH]c(C(=O)OCn2nnc3ccccc3c2=O)c1C` the “activity change, negative = inhibition” value was inactive: 3.87%.
With `Cc1nc(SCC(=O)NCC2CCCO2)c2oc3ccccc3c2n1` (stereo not drawn) the “activity change, negative = inhibition” value was inactive: -18%.
For `O=C(N=C1SCC(=O)N1c1ccccc1Cl)c1ccco1`, the Potency was inconclusive: 25.1 µM [inhibitor, single point].
With `Cc1ccc(S(=O)(=O)NCCOC(=O)Nc2sc(=S)n(C)c2C)cc1` the Potency was inconclusive: 3.16 µM [inhibitor, partial curve].
`CCNc1nc(C)cc(COC)c1C#N` was tested, and the Potency was inconclusive: 25.1 µM [inhibitor, single point].
In the case of `CCC(c1nnnn1C(C)C)N1CCN(C2CCCC2)CC1` (stereo not drawn), the “activity change, negative = inhibition” value is reported as inactive: 9.13%.
In the case of `COc1cc(-c2nnc3sc(-c4cccnc4)nn23)cc(OC)c1OC`, the Potency is reported as active: 15.8 µM.
In the case of `CCc1nc(-c2ccc(-c3ccc(OC)cc3)nc2OC)no1`, the “activity change, negative = inhibition” value is reported as inactive: -142%.
In the case of `N#Cc1c(N)nc(SCC(=O)OCc2ccccc2)c(C#N)c1-c1ccco1`, the Potency is reported as inconclusive: 39.8 µM [inhibitor, single point].
For `COc1ccc(CNC(=O)c2cccc(N(C)C)c2)cc1`, the Potency was inconclusive: 31.6 µM [inhibitor, partial curve].
In the case of `CCN(CC)c1nc(C#N)cc(-c2ccc(OC)cc2)n1`, the Potency is reported as active: 31.6 µM.
For `CCCC(=O)N(c1ccc2oc(=O)sc2c1)S(=O)(=O)c1cccs1`, the Potency was active: 1.26 µM.
`COc1ccccc1C1CC(=O)NC(C)=C1C(=O)OCC(C)C` (stereo not drawn) was tested, and the Potency was inconclusive: 15.8 µM [inhibitor, partial curve].
`COc1ccc(S(=O)(=O)N2CCC(C(=O)NCc3ccco3)CC2)cc1` was tested, and the Potency was inconclusive: 39.8 µM [inhibitor, single point].
With `O=C(O)CC12CSc3[nH]c(=O)sc3C1c1ccccc1OC2=O` (stereo not drawn) the Potency was inconclusive: 25.1 µM [inhibitor, partial curve].
In the case of `Nc1ccc(-c2n[nH]c(=O)c3ccccc23)cc1N`, the Potency is reported as inconclusive: 31.6 µM [inhibitor, single point].
For `CN(C)c1ccc(-c2cc(Nc3ccc(F)cc3)ncn2)cc1`, the Potency was inconclusive: 25.1 µM [inhibitor, single point].
`Cc1cccn2c(=O)c3cc(C#N)c(=NC(=O)c4cccnc4)n(CC4CCCO4)c3nc12` (stereo not drawn) was tested, and the Potency was active: 25.1 µM.
For `CCC1CCCCN1C(=O)CSc1nc(N)c(NC(=O)c2ccco2)c(=O)[nH]1` (stereo not drawn), the Potency was inconclusive: 31.6 µM [inhibitor, single point].
In the case of `Cc1ccc(S(=O)(=O)C(C#N)c2nc3ccccc3nc2N2CCCC2)cc1C` (stereo not drawn), the Potency is reported as inconclusive: 39.8 µM [inhibitor, single point].
`COc1ccc(C(=O)CSc2nc3nc(C)cc(C)c3c(=O)[nH]2)cc1OC` was tested, and the “activity change, negative = inhibition” value was inactive: 1.42%.
With `CCOC(=O)c1[nH]c2ccc(OC)cc2c1NC(=O)N1CCOCC1` the Potency was active: 25.1 µM.
For `Cc1cc(N2CCC(N(C)C3CCCC3)CC2)nc2cc(O)ccc12`, the Potency was active: 25.1 µM.
With `Cc1cc(NCc2ccccc2)nc(-c2ccccc2O)n1` the Potency was inconclusive: 31.6 µM [inhibitor, single point].
For `CCCn1c(=N)c(C(=O)NCC2CCCO2)cc2c(=O)n3cccc(C)c3nc21` (stereo not drawn), the Potency was active: 3.16 µM.
For `COC(=O)c1cc(C(=O)CSc2nc(C)cc(C)n2)ccc1O`, the Potency was inconclusive: 31.6 µM [inhibitor, single point].
With `O=C(C1CCN(S(=O)(=O)c2cccc3nsnc23)CC1)N1CCn2c1nc1ccccc12` the Potency was inconclusive: 31.6 µM [inhibitor, single point].
With `Cc1cc(-c2[nH]nc3c2C(c2ccsc2)C(C#N)=C(N)O3)c(C)s1` (stereo not drawn) the Potency was inconclusive: 25.1 µM [inhibitor, single point].
For `CCn1c(=O)c2c(nc(SCC(=O)NCC3CCCO3)n2C)n(C)c1=O` (stereo not drawn), the “activity change, negative = inhibition” value was inactive: 1.62%.
For `CCC(=O)N1CCN(c2nc(-c3ccccc3)c3c(c2C#N)CCCC3)CC1`, the Potency was inconclusive: 7.94 µM [inhibitor, single point].
`COc1ccc2[nH]c(C(=O)O)c(CCNC(C)=O)c2c1` was tested, and the Potency was active: 25.1 µM.
In the case of `O=C1CCCC2=C1C(c1ccc3c(c1)OCO3)c1c([nH]n(-c3ccccc3)c1=O)N2` (stereo not drawn), the Potency is reported as inconclusive: 3.16 µM [inhibitor, full curve].
In the case of `NC(=O)NC(=O)[C@H]1CCCC[C@@H]1C(=O)O`, the activity change, negative = inhibition is reported as inactive: -11.6% [at 11.4 µM].
In the case of `Cc1csc(NC(=O)c2ccccc2O)n1`, the Potency is reported as active: 31.6 µM.
In the case of `CN(C)Cc1ccccc1-c1nc(NC2CCNCC2)c2ccccc2n1`, the “activity change, negative = inhibition” value is reported as inactive: 6.94%.
In the case of `Cc1cc(C)c2cc(C#N)c(NCCCNC(=O)CCC(=O)O)nc2c1`, the Potency is reported as active: 31.6 µM.
In the case of `CCC(Oc1ccccc1)C(=O)Nc1nnc(C(F)(F)F)s1` (stereo not drawn), the Potency is reported as inconclusive: 0.0316 µM [inhibitor, full curve, poor fit].
In the case of `CCOC(=O)c1c(N)sc(C(N)=O)c1C`, the Potency is reported as active: 12.6 µM.
In the case of `COc1cccc(C(=O)Nc2nc(-c3ccc(S(=O)(=O)N4CCOCC4)cc3)cs2)c1`, the Potency is reported as inconclusive: 39.8 µM [inhibitor, single point].
`COc1ccc(OC)c(-c2cc(C(=O)N3CCN(c4ncccn4)CC3)c3ccccc3n2)c1` was tested, and the Potency was inconclusive: 39.8 µM [inhibitor, single point].
With `CC(C)CNC(=O)COc1ccc2c3c(c(=O)oc2c1)CCC3` the Potency was inconclusive: 25.1 µM [inhibitor, single point].
